The campaign covered roughly 50,000 compounds. About 800 (1.6%) showed an effect of 50% or more. The list shows a part of the results.

In the assay the target is Bcl-2-like protein 10 (Homo sapiens) (UniProt Q9HD36). The assay is described as follows: TR3 peptide-Bcl-B binding displacers, biochemical primary FP assay, phenotype converters (AID 1240).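 Also: 0% = Bcl-B with tracer peptide and DMSO and 100% = tracer peptide lacking Bcl-B.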 The conditions noted are these: GST-Bcl-B / FITC-TR3 peptide fluorescence polarization; stronger effect = higher value; compound at 3.75 mg/L. In general terms: Polarisation of emitted light reports the rotation of a fluorescent probe.
Sequence of UniProt Q9HD36 (Q9HD36 whole entry, looked up): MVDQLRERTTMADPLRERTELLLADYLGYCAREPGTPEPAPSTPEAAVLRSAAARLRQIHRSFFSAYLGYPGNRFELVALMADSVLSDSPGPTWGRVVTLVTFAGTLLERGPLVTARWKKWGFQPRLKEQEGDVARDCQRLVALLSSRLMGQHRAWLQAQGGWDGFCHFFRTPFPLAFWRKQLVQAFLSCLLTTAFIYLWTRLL
`C(=N\Nc1ccccn1)/c1cccs1`: the displacement is -4.2%.

In the case of `CCOC(=O)C1=C(C)NC2=C(C(=O)CCC2)C1c1ccc(I)cc1` (configuration not stated), the displacement came to 2.3%. As for `COc1ccc(Br)cc1/C=C/C(=O)Nc1ccc(OC(F)(F)F)cc1`, the displacement was determined as 0.8%. Turning to `COc1cccc(NC2=C(Cl)C(=O)N(c3ccc(Br)cc3)C2=O)c1`, the displacement amounted to 13.4%. As for `COc1cc2c(cc1OC)C(=S)NC1(CCCC1)C2`, the displacement was -7%.

Take `CCOC(=O)c1ccccc1NC(=O)CN(c1ccc(C)cc1)S(=O)(=O)c1ccc(SC)cc1`: the displacement came out at 5%. For `O=C(/C=C\Nc1ccccn1)c1ccccc1`, the displacement was 6.6%. `CN(C)c1ccc(C=Nc2nonc2N)cc1`: the displacement is -9%. Turning to `O=C(O)COc1ccccc1C1OC2CCCCC2C2=CCCCC21` (configuration not stated), the displacement amounted to 10.9%. For `O=[N+]([O-])c1cccc(S(=O)(=O)NCc2cccnc2)c1`, the displacement is -3.2%.

As for `CCOc1ccc(NC(NC(=O)CN2C(=O)c3ccccc3S2(=O)=O)C(Cl)(Cl)Cl)cc1` (configuration not stated), the displacement came out at 10.3%. As to `COc1ccc(NCN2C(=O)CSC2=O)cc1`, the displacement worked out at 9.8%. The figure for `O=C(C1CN(S(=O)(=O)c2ccccc2)CCN1S(=O)(=O)c1ccccc1)N1CCCCCC1` (configuration not stated) is -5.5%. Consider `NC(=O)C1CCN(C(=O)c2ccc([N+](=O)[O-])cc2)CC1`, for which the displacement amounted to 4.4%. Regarding `Cc1ccc(/C(N)=N/OC(=O)/C=C/c2ccccc2)cc1`, the displacement stood at 4.6%. For `COc1ccc(S(=O)(=O)NNC(=O)c2ccc(OC)c(OC)c2)cc1`, the displacement is -8%. In the case of `O=C(c1ccc(-c2ccccc2)cc1)N1CCN(C(=O)c2cccs2)CC1`, the displacement was determined as 11.9%.

Regarding `CC(C)c1ccccc1NC(=O)/C=C/C(=O)O`, the displacement came to 1.7%. As for `Clc1ccc(CN2C3=NCCCN3c3ccccc32)cc1`, the displacement amounted to 5%.

As for `Cc1cc(NC(=O)c2ccc(-c3ccc(Br)cc3)o2)ccc1NC(=O)c1ccco1`, the displacement is -2.6%. Consider `Cc1ccc(S(=O)(=O)N(C)Cc2ccccc2)cc1[N+](=O)[O-]`, for which the displacement was 4.9%.

For `CCOC(=O)c1sc(NC(=O)COc2ccc(C)cc2C)c(C(=O)OCC)c1C`, the displacement was found to be 10.1%.

In the case of `Cc1ccc(C(=O)N/C(=C/c2ccc(-c3ccccc3[N+](=O)[O-])o2)C(=O)NCc2ccco2)cc1`, the displacement was 37.2%. With `Cc1c(N2C(=O)CCCC2=O)c(=O)n(-c2ccccc2)n1C`, the displacement turned out to be 5.3%. Regarding `CCOC(=O)c1c(NC(=O)/C=C/c2cc(OC)ccc2OC)sc2c1CCC2`, the displacement was -2.1%. `CCOC(=O)/C=C(\C)Nc1cc(-c2ccc(Br)cc2)[nH]n1`: the displacement is -8.4%. The figure for `O=C(CCCOc1ccc(Cl)cc1Cl)Nc1ccc(S(=O)(=O)Nc2nccs2)cc1` is 11.8%. As for `CCN1C(=O)/C(=C\c2cn(CCOc3ccc(Br)cc3)c3ccccc23)SC1=S`, the displacement came out at 1.9%. For the molecule `O=C(Nc1ccccc1Br)c1cc(-c2cccs2)nc2ccccc12`, the displacement was determined as 0.4%. For `CS(=O)(=O)N1CCN(Cc2cccnc2)CC1` the value was -9.8%; for `Cc1cc(OCC(=O)N2CCN(c3ccc([N+](=O)[O-])cc3)CC2)ccc1Br`, 3.2%; for `COc1ccc(/C=C2/SC(=S)N(CC(=O)Nc3ccc(O)cc3)C2=O)cc1OC`, 9.4%. `O=C(c1cnn2c1NC(c1cccs1)CC2C(F)(F)F)N1CCSCC1` (configuration not stated): the displacement was -0.6%. For `O=[N+]([O-])c1ccc(NCCCN2CCOCC2)c(Cl)c1` the value was 12.3%; for `Cc1cc(C(=O)NC(C)Cc2ccccc2)cc(C)c1N` (configuration not stated), -1.4%. As to `CSC1=C(C#N)C(c2cccs2)CC(=O)N1` (configuration not stated), the displacement is -12.2%. Take `COc1ccc(-c2cc(=O)oc3c(C)c(OC(C)=O)ccc23)cc1`: the displacement was -5.1%. As to `NC(=O)NC(c1ccccc1)c1ccc(Cl)cc1` (configuration not stated), the displacement is -3.4%. With `Cc1ccc(/C(N)=N/OC(=O)COc2ccc3ccccc3c2)cc1`, the displacement was -3.9%.

Take `Cc1ccc(CN2CCN(N=Cc3cccc(Br)c3)CC2)c(C)c1`: the displacement is 12.4%. Regarding `COc1ccc(CC(=O)O/N=C(\N)c2ccc(C)cc2)cc1OC`, the displacement is -0.5%. For `COc1ccc(Cl)cc1NC(=O)c1ccccc1N(Cc1ccccc1)S(=O)(=O)c1ccc(C)cc1` the value was 3.2%. For the molecule `O=C(/C=C/c1cccc(C(F)(F)F)c1)Nc1ccc([N+](=O)[O-])cc1`, the displacement was found to be 11.8%. For `COC(=O)c1cc(NC(C)=O)c(C)c(NC(C)=O)c1[N+](=O)[O-]`, the displacement is -12.6%. Turning to `COc1cc(NC(=O)S(=O)(=O)c2ccccc2)ccc1NC(=O)c1ccco1`, the displacement amounted to 0.7%. For `CC(C)C(=O)Nc1ccc(I)cc1Cl`, the displacement was 11.1%. Turning to `O=C1N=c2ccccc2=C1c1sc(=S)n(NC(=O)c2ccccc2Br)c1O`, the displacement was -9.4%.

Take `Nc1nc(-c2cccc([N+](=O)[O-])c2)cs1`: the displacement was -8.1%.

On to `O=C(CCNc1ccc(Cl)c(C(F)(F)F)c1)c1ccco1`, for which the displacement was -1.4%.

For `CC(C)(C)c1ccc(C(=O)Nc2ccc(NC(=O)COc3ccccc3Cl)cc2)cc1`, the displacement is -2.3%. Take `O=C(Nc1ccc2c(c1)oc1ccccc12)c1cccs1`: the displacement stood at 9.7%.

For the molecule `CCCN(CCC)C(=O)c1c(NC(=O)c2cccs2)sc2c1CCCCC2`, the displacement came to 10.5%. Consider `CCOC(=O)C(=O)Nc1ccc(C(N)=O)cc1`, for which the displacement amounted to 13.6%. Regarding `COc1cc(NC(=O)c2cccs2)ccc1NC(=O)c1ccco1`, the displacement came to 11.7%. With `Cc1nn(-c2ccccc2)c2c1C(c1c(Cl)cccc1Cl)C(C#N)=C(N)O2` (configuration not stated), the displacement was -10.1%. As for `CCN=C1SC(CC(=O)Nc2ccc(N3CCCCC3)cc2)C(=O)N1CC` (configuration not stated), the displacement was -2.2%. As to `COc1ccccc1CNC(=O)COc1ccc(Cl)cc1Br`, the displacement is -8%.

On to `O=c1/c(=C\c2ccc(-c3cccc(Br)c3)o2)sc2nc3ccccc3n12`, for which the displacement stood at 11.2%.

Turning to `O=C1NC(=O)/C(=C\c2cc3c(cc2Br)OCO3)S1`, the displacement was found to be 11.9%.

For `O=C(CN1CCOCC1)Nc1c(-c2ccccc2)c2cc(Br)ccc2[nH]c1=O`, the displacement is 8.7%.

`CCCCN1C(=O)C(=O)c2cc(Br)ccc21`: the displacement was -7.7%.

Take `O=c1oc2cc(OCc3ccccc3F)ccc2c2ccccc12`: the displacement turned out to be 1.2%. `COc1ccc(C(=O)/C=C/Nc2ccc(NC(C)=O)cc2)cc1`: the displacement was found to be 10.7%.

Regarding `O=C(NC(NC(=S)Nc1cccc(C(=O)O)c1)C(Cl)(Cl)Cl)OCc1ccccc1` (configuration not stated), the displacement is -2%. For `Cc1ccc(-c2ccc(OCC(=O)Nc3ccccc3C)cc2)cc1` the value was 3.1%. As to `Cc1ccc(C(=O)NNC(=O)c2ccc(O)cc2)cc1`, the displacement is -8.4%. Turning to `O=C1CC(c2cccs2)CC2=C1C(c1ccsc1)Nc1ccccc1N2` (configuration not stated), the displacement was determined as 0%. Turning to `O=C(COc1ccccc1Cl)NNC(=O)c1ccc(O)cc1`, the displacement is -9.4%. Turning to `CCNC(=S)NNC(=O)c1cccc(Br)c1`, the displacement is -7.1%. The figure for `O=C1/C(=C/c2ccc(Cl)cc2)SC(=S)N1CCc1ccccc1` is 9.1%. On to `CC(C)(C)c1cc(NC(=O)c2cc(F)c(F)c(F)c2F)no1`, for which the displacement was -15.3%.

As for `C=CCSc1nnc2nc(C)cc(C)n12`, the displacement is 1%.

Source of the values: PubChem BioAssay AID1240 (Sanford-Burnham Center for Chemical Genomics, 2008).
